Laboratory results taken from the supplement of paper PMC11417369.
The other results are listed elsewhere or left out.

tested on: PfSIP2 AP2 domain 1 (GST-tagged); assay: gcPBM binding intensity (ln(normalized median fluorescence intensity)); higher = stronger DNA binding
How it was run: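 Using an Agilent 4 × 180k array, primer-extended double-stranded 36-bp intergenic genomic probes and negative controls were exposed for 1 h to GST-fused P. falciparum DNA-binding domains expressed in E. coli. Binding was carried out in 1× PBS with 1% milk, 0.2 mg/ml BSA, 0.5% salmon testes DNA and 0.03% Triton X-100, and protein was detected with Alexa488 anti-GST antibody and a 488 nm scan. Binding intensity is the highest Masliner-normalised natural-log median intensity across replicate spots of either probe orientation.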

Row | Sequence | gcPBM binding intensity (ln)
1 | GATGAATAATATGTATGTACATATGCATTATGATGT [XGTACX_site7655] | 7.43
2 | ATATGCACTTTTTGCACACGTATGAATAACAAAATA [CACACA_site1810] | 9.53
3 | ACATATAGATAAATATGTACATATATATATATATAT [XGTACX_site1806] | 9.36
4 | TTTTCTGTGTTTACATGTACGAAAGATTAATATTAT [XGTACX_site5214] | 7.13
5 | ATTTGATAGACACATGCACACATGCAATACTTTATT [CACACA_site5633] | 8.13
6 | TTATCATATCATGGAAGTACAAATAAAATATATAAC [XGTACX_site1608] | 7.24
7 | TACATACATACATACACACACATATAGATTTATATA [CACACA_site6999] | 7.82
8 | TATATAAAAATATACACACACAAATGTATATATATA [CACACA_site220] | 8.08
9 | ATATATATATATATATCACACATTAATAATATATAT [CACACA_site5081] | 9.16
10 | ATAATTTTGTATAATTGTACATTATTTTAAATAAAT [XGTACX_site7952] | 6.78
11 | AAAACATAACATTGTTGTACTACTAATAAAATAAGT [XGTACX_site6149] | 7.34
12 | TCTTTATTATTCGCCACACACATATAAATATAAATA [CACACA_site7441] | 7.84
13 | TTTTTTTTTTTTTTTAAACACACGGTGTGAAAATTA [CACACA_site3818] | 7.02
14 | ATCAATCATGGTTTTACACACACATGCATGTGAAAA [CACACA_site1350] | 7.05
15 | ATAATTACATTCCATACACACATATATTTAAAGGTT [CACACA_site7403] | 7.1
16 | TTCTTGTTCCTGAAAGTGCATATAACAAAAATAACA [GTGCAC_site9635] | 9.52
17 | AATGATATATTTAAATGTACACATGAAATATAATAT [XGTACX_site2678] | 7.06
18 | TTATATTTGATAGTTTGTACATATAATTATTATCAT [XGTACX_site5676] | 7.21
19 | TATCTTCAAGTATGTACACACTATATATAATAAAAT [CACACA_site5368] | 7.27
20 | ATATATATATATATATGTACATACAATTATATTCTC [XGTACX_site1133] | 9.67
21 | AATCTTCTTAATTGTAGTACACAATTTATAAACAAA [XGTACX_site8706] | 7.6
22 | AAAAATCATTTAAGAACACACAAATATTTCCATTAA [CACACA_site1488] | 6.74
23 | TACATAAATTTTAATACATGCAAATAAAATATATAA [TGCATGCA_site131] | 6.94

Row | Sequence | gcPBM binding intensity (ln)
24 | ATAACGAACACTATTACACACATACATACATATGTA [CACACA_site5092] | 7.33
25 | AAAAAAAAAAAAAACACACACACATAGACCTCCAAT [CACACA_site3563] | 7.35
26 | TTTTTTGTTACAACAGTGCAAAAAAACCTTAATGTT | 7.84
27 | ATAAAAAATATCACATAAAATAAAAAAAGAAAGGAT [XGTACX_negctrl_site294] | 7.15
28 | TATATATATACAGTAGTGCATATATTTAAAATATAT [GTGCAC_site9999] | 8.9
29 | TATATATAAAAATATACACACTGTATTATTGTAATA [CACACA_site5959] | 6.9
30 | ATATATAAAAATAAATGTACATATTCATATGATGAT [XGTACX_site3411] | 7.04
31 | TATATACATACATATTGTACTTATAAAGATTAATTT [XGTACX_site2203] | 7.12
32 | ATATAAGTATATCTATGTACATACAATATAAATGTA [XGTACX_site2153] | 7.04
33 | ATCAAAAGAAGACACACACACATACCTATAAATATA [CACACA_site7736] | 7.07
34 | AATAGTTATTCCAGGTGTACATAACATATAATTTAC [XGTACX_site1340] | 7.44
35 | TTATTATTATTACTTACGCACACTTTTTTTTTTATT [CACACA_site411] | 7
36 | GACAATTATATGTAGGTGCATATACAAATTTTTTAA | 10.9
37 | ATAGGATATTATTCCTGTACATATATATATATATAT [XGTACX_site2108] | 8.94
38 | TTTTATTCATCATATTGTACATTCTTGTATTTATAG [XGTACX_site8534] | 6.88
39 | ATATACTTACATATTACACACAATATTTTTAAATGG [CACACA_site5916] | 6.95
40 | CTTTTGCCCAAAAAGGTACACACCACAAAGTACATA [CACACA_site8169] | 7.13
41 | TATTTATAATTAAATACACACATATATTATAGATTT [CACACA_site6435] | 6.88
42 | TTGTATATACTATACACACACATACATACATACATA [CACACA_site814] | 7.21
43 | ACCCATATTCTTTTTACACACTTGAATAAAAAATAT [CACACA_site4797] | 7.51
44 | GAGATATAAAAGTGTACACATATTGTTATCCATATT [CACACA_site5441] | 7.11
45 | AATAAAAAATAAAAAAGTACATGATGAAAAGGTTTA [XGTACX_site7615] | 6.97
46 | TCCCTGATGTTATTTAATATACCATAAAAAAAAAAA [CACACA_negctrl_site1472] | 7.22

Row | Sequence | gcPBM binding intensity (ln)
47 | CACACTTTATAATGTTGTACGATACATTATACCAAA [XGTACX_site941] | 7.24
48 | ATCTCAAATATAATAAATTATTAGGTATATATATAT [CACACA_negctrl_site1828] | 9.16
49 | TATATATATATATATACATGCATACAATTTTATGAG [TGCATGCA_site466] | 9.83
50 | TCTTGTTATAATAATCAATATATGGGTATACTTATG [CACACA_negctrl_site1618] | 6.9
51 | AAAAGGATTTTTTATACACACACTAACTAATGTATA [CACACA_site2356] | 6.87
52 | AAAAAAATAAATAAGACACACACAAAAAAAAAAAAA [CACACA_site8404] | 6.83
53 | TAAATAATAATAAAATGTACATTATATATGTATATG [XGTACX_site8672] | 6.98
54 | TTTTTTTTTTTTTTCTGTACTGATACTTATAGAGTT [XGTACX_site4736] | 7.01
55 | AAATAATAAATATATCGTACAAATATCATATATAAA [XGTACX_site2771] | 6.79
56 | TTTTTTCTTTTTATAACACACAGGTGAAAAATAATA [CACACA_site1850] | 7
57 | TCCTGTTGAGAATGGCGTACATATAAATATTATATA [XGTACX_site1841] | 6.9
58 | TTTCCTCATTTTATCATACACACTTGTTTATATGTG [CACACA_site8202] | 6.92
59 | TATTACTTTATATATACACACATATAACATAAATGC [CACACA_site3948] | 7.26
60 | CAGGTTCTTATATAGTGTACTATAGACATTCAATTG [XGTACX_site7239] | 6.94
61 | CAAACAAATTGTGAAACACACATATATATATATATA [CACACA_site2001] | 9.59
62 | AACGTATTATTTATCTGTACAAAATAATAACGTATT [XGTACX_site813] | 6.96
63 | TTTTGTTTTTTCAATGTGCACTTAGGATGTTTTTAT [GTGCAC_site9565] | 10.6
64 | TAAATAAAAATACAGTGTACTTTTTTCTATTTAAAA [XGTACX_site3288] | 7.5
65 | ATCCAAATTAATAATAGTACTTTTAAGTCCTATGTA [XGTACX_site2452] | 6.65
66 | TTGGAGTTCATATGTGGTACACATTTAAATATATTT [XGTACX_site5582] | 6.97
67 | ATCATGGAAAAAACAAATGGGCTACATTACCTTTTG [GTGCAC_negctrl_site487] | 6.64
68 | GATATAAACGTATATGTACATATATATATATATATA [GTGCAC_negctrl_site186] | 9.67
69 | ATAATAAATGTCTTCAATGAAGTGGAAATGCTGTTA [TGCATGCA_negctrl_site238] | 6.95

Row | Sequence | gcPBM binding intensity (ln)
70 | ATATATACATAGAATTGTACATAATTTATGTTCATT [XGTACX_site7426] | 7.1
71 | TATATACAAATATGTACACACATTACAGATGTACAT [CACACA_site6586] | 7.09
72 | TAGAAAAAATAAAATAGTACACATCCAAAAAAAAAA [XGTACX_site7829] | 7.29
73 | CCAAACAAAAAAAAAAGTACATAAAACACCTATTTG [XGTACX_site5645] | 7.13
74 | AATATATAAATATATACACACAAAAACATATATATA [CACACA_site1318] | 7.39
75 | ATAATTAGGGTGTATTTCATTTCATTTCATTTTATT [CACACA_negctrl_site1418] | 7.03
76 | TAAGTAAAAAATTAAAAAGATTACAGGGGGGGAAGG [XGTACX_negctrl_site491] | 8.15
77 | ATTTTAACGAATATATGTACATAAAAAAAAAAAAGA [XGTACX_site8750] | 7.25
78 | GACATAAGATAATTACACATTGTTTCCTCAATAATA [CACACA_negctrl_site1616] | 7
79 | TTTCTTTAATATATAGTGCATGTAAATTTTACAATA [GTGCAC_site9679] | 9.42
80 | AAAAAAAAAAACAGTTGTACATTTATTTATATATTA [XGTACX_site217] | 6.96
81 | AAAATAAGGACTGTTGTGCACTGGATTTGTGGTTAC [GTGCAC_site9830] | 10.1
82 | AATTAATATTTAAATTGTACATGAACATTTTAATGT [XGTACX_site462] | 6.93
83 | TAAATATTATTTATATGTACTGATATATTAAATAAA [XGTACX_site3446] | 6.74
84 | AAAATAAAATTTACTTGTACTAAAGGGATACGCGCA [XGTACX_site1453] | 6.59
85 | GTCACAAAATAAATTAAACACACAACATCATATATG [CACACA_site8182] | 7.11
86 | AATATAAATTTATATTGTACATATTTTATTATATGT [XGTACX_site905] | 7.2
87 | GTGTATCAATATGTAGGTACGTAAATATAGATAATA [XGTACX_site5526] | 7.1
88 | TAATATAATATATAGGTGCAATATTAACAAAAATTT | 9.61
89 | ATTAATATGAATAAATGTACAAATGAATGATTACAT [XGTACX_site6044] | 6.78
